A lower IC50 marks a more sensitive line; a fit beyond the top or the lowest dose is shown as a bound at that dose. AUC is the area under the same curve over the 256-fold range up to the top dose, as a fraction; values near 1 show little effect. Where the top dose is marked as inferred, it was derived from the fitted curves, not read from the paper. Where only a bound is given, the exact number is not on record here.

Compound in this test: CCn1cc(-c2ccnc3[nH]c(-c4cccc(CN(C)C)c4)cc23)c(-c2ccc(NC(=O)N(C)C)cc2)n1 [GSK1070916]
The test can be described thus: Viability of human cancer cell lines after 72 h of drug (GDSC screen). Conditions: top dose inferred. As to the method: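 Human cancer cell lines in 384-well plates, medium with 10% serum, drug for 72 h over a 256-fold dose range (nine 2-fold or five 4-fold steps up to the top dose). Adherent lines were fixed and stained with the nucleic acid dye Syto60, suspension lines read with resazurin; signal relative to control wells, capped at 0 and 100%. One two-parameter sigmoid per drug and line, fitted in a mixed model over all curves with the slope shared within a line.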
For orientation: IC50 means the point on the concentration scale where inhibition reaches its midpoint. In the case of “H2818 (mesothelioma, adherent, top dose 2.56 µM)”, the AUC was 0.969 and the half-inhibitory concentration (IC50) is over 2560 nM.

Take “H2869 (mesothelioma, adherent, top dose 2.56 µM)”: the AUC stood at 0.882 and the IC50 is over 2560 nM.

“H3118 (head and neck, adherent, top dose 2.56 µM)”: the AUC is 0.914 and the IC50 was over 2560 nM.

With “H3255 (lung adenocarcinoma, adherent, top dose 2.56 µM)”, the AUC stood at 0.944 and the concentration for half-maximal inhibition (IC50) was over 2560 nM.

As to “H-EMC-SS (chondrosarcoma, adherent, top dose 2.56 µM)”, the AUC is 0.813 and the IC50 amounted to 1930 nM.

Take “HA7-RCC (kidney, adherent, top dose 2.56 µM)”: the AUC was found to be 0.961 and the IC50 is over 2560 nM.

As for “HAL-01 (lymphoblastic leukaemia, suspension, top dose 2.56 µM)”, the AUC was determined as 0.788 and the IC50 is 982 nM.

On to “HARA (lung squamous cell carcinoma, adherent, top dose 2.56 µM)”, for which the AUC stood at 0.75 and the IC50 is 957 nM.

As to “HC-1 (hairy cell leukaemia, suspension, top dose 2.56 µM)”, the AUC stood at 0.838 and the half-inhibitory concentration (IC50) amounted to 1640 nM.

With “HCC38 (breast, adherent, top dose 2.56 µM)”, the AUC was determined as 0.952 and the IC50 was over 2560 nM.

On to “HCC70 (breast, adherent, top dose 2.56 µM)”, for which the AUC turned out to be 0.962 and the half-maximal inhibitory concentration (IC50) is over 2560 nM.

Turning to “HCC202 (breast, adherent, top dose 2.56 µM)”, the AUC turned out to be 0.917 and the concentration for half-maximal inhibition (IC50) is over 2560 nM.

Consider “HCC1143 (breast, adherent, top dose 2.56 µM)”, for which the AUC came to 0.922 and the IC50 is over 2560 nM.

As to “HCC1187 (breast, suspension, top dose 2.56 µM)”, the AUC was found to be 0.219 and the concentration for half-maximal inhibition (IC50) amounted to 25.4 nM.

Take “HCC1395 (breast, adherent, top dose 2.56 µM)”: the AUC is 0.962 and the IC50 is over 2560 nM.

Regarding “HCC1419 (breast, adherent, top dose 2.56 µM)”, the AUC was determined as 0.968 and the 50% inhibitory concentration (IC50) is over 2560 nM.

For the cell line “HCC1428 (breast, adherent, top dose 2.56 µM)”, the AUC amounted to 0.985 and the IC50 was over 2560 nM.

With “HCC1500 (breast, adherent, top dose 10.24 µM)”, the AUC worked out at 0.947 and the IC50 is over 10200 nM.

Take “HCC1569 (breast, adherent, top dose 2.56 µM)”: the AUC is 0.846 and the half-maximal inhibitory concentration (IC50) is over 2560 nM.

For the cell line “HCC1599 (breast, suspension, top dose 2.56 µM)”, the AUC stood at 0.445 and the half-inhibitory concentration (IC50) turned out to be 111 nM.

As for “HCC1806 (breast, adherent, top dose 2.56 µM)”, the AUC is 0.986 and the IC50 is over 2560 nM.

In the case of “HCC1937 (breast, adherent, top dose 2.56 µM)”, the AUC was 0.952 and the half-inhibitory concentration (IC50) was over 2560 nM.

For the cell line “HCC1954 (breast, adherent, top dose 2.56 µM)”, the AUC worked out at 0.957 and the half-maximal inhibitory concentration (IC50) is over 2560 nM.

Take “HCC2157 (breast, suspension, top dose 2.56 µM)”: the AUC came to 0.967 and the IC50 is over 2560 nM.

On to “HCC2218 (breast, suspension, top dose 2.56 µM)”, for which the AUC stood at 0.98 and the IC50 is over 2560 nM.

For “HCC2998 (large intestine, adherent, top dose 2.56 µM)”, the AUC came out at 0.98 and the IC50 is over 2560 nM.

Turning to “HCC-15 (lung squamous cell carcinoma, adherent, top dose 2.56 µM)”, the AUC is 0.945 and the IC50 was over 2560 nM.

On to “HCC-33 (small cell lung carcinoma, adherent, top dose 2.56 µM)”, for which the AUC came out at 0.818 and the IC50 turned out to be 1460 nM.

For the cell line “HCC-44 (lung adenocarcinoma, adherent, top dose 2.56 µM)”, the AUC stood at 0.903 and the concentration for half-maximal inhibition (IC50) was over 2560 nM.

For “HCC-56 (large intestine, adherent, top dose 2.56 µM)”, the AUC turned out to be 0.753 and the concentration for half-maximal inhibition (IC50) is 874 nM.

As for “HCC-78 (lung adenocarcinoma, adherent, top dose 2.56 µM)”, the AUC was 0.86 and the half-maximal inhibitory concentration (IC50) was over 2560 nM.

Take “HCC-827 (lung adenocarcinoma, adherent, top dose 2.56 µM)”: the AUC worked out at 0.974 and the IC50 is over 2560 nM.

Regarding “HCE-4 (oesophagus, adherent, top dose 2.56 µM)”, the AUC amounted to 0.99 and the half-inhibitory concentration (IC50) was over 2560 nM.

With “HCT-15 (large intestine, adherent, top dose 2.56 µM)”, the AUC turned out to be 0.971 and the half-maximal inhibitory concentration (IC50) is over 2560 nM.

On to “HD-MY-Z (Hodgkin lymphoma, adherent, top dose 2.56 µM)”, for which the AUC is 0.862 and the IC50 came to 2210 nM.

On to “HDLM-2 (Hodgkin lymphoma, suspension, top dose 2.56 µM)”, for which the AUC worked out at 0.888 and the concentration for half-maximal inhibition (IC50) is over 2560 nM.

Regarding “HDQ-P1 (breast, adherent, top dose 2.56 µM)”, the AUC amounted to 0.962 and the IC50 was over 2560 nM.

Consider “HEC-1 (endometrium, adherent, top dose 2.56 µM)”, for which the AUC is 0.989 and the 50% inhibitory concentration (IC50) is over 2560 nM.

Regarding “HEL (acute myeloid leukaemia, semi-adherent, top dose 2.56 µM)”, the AUC is 0.895 and the IC50 worked out at 2180 nM.

Turning to “HH (T-cell leukaemia, suspension, top dose 2.56 µM)”, the AUC amounted to 0.706 and the half-maximal inhibitory concentration (IC50) came out at 750 nM.

“HL-60 (acute myeloid leukaemia, suspension, top dose 2.56 µM)”: the AUC was 0.359 and the concentration for half-maximal inhibition (IC50) was 68.3 nM.

As to HLE (liver, adherent, top dose 2.56 µM), the AUC stood at 0.955 and the IC50 is over 2560 nM.

Take “HMV-II (melanoma, adherent, top dose 2.56 µM)”: the AUC turned out to be 0.951 and the IC50 is over 2560 nM.

On to “HN (head and neck, adherent, top dose 2.56 µM)”, for which the AUC worked out at 0.983 and the 50% inhibitory concentration (IC50) is over 2560 nM.

As for “HO-1-u-1 (head and neck, adherent, top dose 2.56 µM)”, the AUC was 0.984 and the IC50 was over 2560 nM.

Take “HOP-62 (lung adenocarcinoma, adherent, top dose 2.56 µM)”: the AUC was 0.917 and the IC50 is over 2560 nM.

As for “HOP-92 (large cell lung carcinoma, adherent, top dose 2.56 µM)”, the AUC worked out at 0.982 and the concentration for half-maximal inhibition (IC50) was over 2560 nM.

In the case of “HOS (osteosarcoma, adherent, top dose 2.56 µM)”, the AUC turned out to be 0.992 and the 50% inhibitory concentration (IC50) is over 2560 nM.

On to “HPAC (pancreas, adherent, top dose 2.56 µM)”, for which the AUC came out at 0.799 and the half-maximal inhibitory concentration (IC50) amounted to 1860 nM.

Consider “HPAF-II (pancreas, adherent, top dose 2.56 µM)”, for which the AUC came to 0.948 and the IC50 was over 2560 nM.

Consider “HSC-2 (head and neck, adherent, top dose 2.56 µM)”, for which the AUC amounted to 0.988 and the IC50 is over 2560 nM.

“HSC-3 (head and neck, adherent, top dose 2.56 µM)”: the AUC was determined as 0.99 and the 50% inhibitory concentration (IC50) is over 2560 nM.

As for “HSC-4 (head and neck, adherent, top dose 2.56 µM)”, the AUC came to 0.972 and the half-inhibitory concentration (IC50) is over 2560 nM.

As for “HSC-39 (stomach, suspension, top dose 2.56 µM)”, the AUC worked out at 0.588 and the concentration for half-maximal inhibition (IC50) is 268 nM.

As for “HT55 (large intestine, adherent, top dose 2.56 µM)”, the AUC is 0.99 and the IC50 was over 2560 nM.

Consider “HT (B-cell lymphoma, suspension, top dose 2.56 µM)”, for which the AUC came out at 0.988 and the IC50 was over 2560 nM.

“HT-3 (cervix, adherent, top dose 2.56 µM)”: the AUC worked out at 0.982 and the half-maximal inhibitory concentration (IC50) is over 2560 nM.

In the case of “HT-29 (large intestine, adherent, top dose 2.56 µM)”, the AUC came out at 0.963 and the 50% inhibitory concentration (IC50) is over 2560 nM.

For “HT-115 (large intestine, adherent, top dose 2.56 µM)”, the AUC is 0.982 and the IC50 was over 2560 nM.

As for “HT-144 (melanoma, adherent, top dose 2.56 µM)”, the AUC amounted to 0.977 and the IC50 was over 2560 nM.

As to “HT-1080 (fibrosarcoma, adherent, top dose 2.56 µM)”, the AUC was determined as 0.958 and the IC50 was over 2560 nM.

Regarding “HT-1197 (bladder, adherent, top dose 2.56 µM)”, the AUC came out at 0.983 and the IC50 is over 2560 nM.

Take “HT-1376 (bladder, adherent, top dose 2.56 µM)”: the AUC worked out at 0.985 and the IC50 is over 2560 nM.

With “HTC-C3 (thyroid, adherent, top dose 2.56 µM)”, the AUC came to 0.954 and the half-maximal inhibitory concentration (IC50) was over 2560 nM.

As to “HUTU-80 (digestive system, adherent, top dose 2.56 µM)”, the AUC stood at 0.084 and the concentration for half-maximal inhibition (IC50) is under 10 nM.

Take “Hep 3B2_1-7 (liver, adherent, top dose 2.56 µM)”: the AUC was determined as 0.978 and the IC50 is over 2560 nM.

(Values after the supplement of paper PMC4967469.)
